# Results published in PubChem BioAssay AID463173 (ICCB-Longwood Screening Facility, Harvard Medical School, 2010).
# In all, about 52,000 compounds went through this assay and about 1,700 (3.3%) were called active. Rule as the data show it: active = survival mostly below about 52% (no sharp cut-off); inactive = mostly above about 56%. This is one part of the list.
# Tested on: Wild type
# Assay: S. aureus survival, RN4220 and DeltatarO strains – OD600, teichoic acid synthesis inhibitors, primary screen (AID 463173)
# Conditions: S. aureus RN4220 wild type/DeltatarO growth, OD600, 18 h, stronger effect = lower value, screened at 18.75 µg/mL (by protocol)
row,SMILES,survival
1,O=C(c1cccc([N+](=O)[O-])c1)N1CCN(CCc2ccncc2)CC1,inactive: 81%
2,CCOc1ccccc1NC(=O)c1nn(-c2ccc(OC)cc2)c(=O)c2c1c1ccccc1n2C,inactive: 91%
3,COc1ccc(OC)c(CNC(=O)CCC(=O)N2Cc3ccccc3Oc3ncccc32)c1,inactive: 118%
4,COc1ccc2nc(NC(=O)c3nc(SCc4cccc(C)c4)ncc3Cl)sc2c1,inactive: 81%
5,COc1ccc(N2CC(NC(=O)C3CCCC3)CC2=O)cc1 (stereo unspecified),inactive: 82%
6,COc1ccccc1NC(=O)C1=C(C)Nc2ncnn2C1c1sccc1C (stereo unspecified),inactive: 73%
7,Cc1ccccc1CNC(=O)Cn1cc2c(n1)-c1c(oc(C(=O)N3CCCC3)c1C)CC2,inactive: 109%
8,O=C(O)c1csc2c1CCCC2,inactive: 115%
9,Cc1cccc(C(=O)Nc2sc3c(c2C(=O)O)CCCC3)c1,inactive: 40%
10,Cc1cc(C)cc(NC(=O)CN(C)S(=O)(=O)c2ccc3c(c2)CCC(=O)N3)c1,inactive: 91%
11,COc1ccc(N(CC(=O)N2CCN(c3ccc(F)cc3)CC2)S(=O)(=O)c2c(C)nn(C)c2C)cc1,inactive: 80%
12,CC(=O)c1c(C)oc2ccc(N(C(=O)c3ccncc3)S(=O)(=O)c3ccc(F)cc3C)cc12,inactive: 137%
13,CCOc1ccc(OCC)c(NC(=O)CSc2nc3c(c(=O)n(C)c(=O)n3C)n2C(C)C)c1,inactive: 99%
14,COc1cc(Cl)c(NC(=O)CN(C)S(=O)(=O)c2ccc3[nH]c4c(c3c2)CCCC4)c(OC)c1,inactive: 80%
15,CCCOc1ccc(CNC(=O)Cn2c(=O)oc3ccccc32)cc1,inactive: 66%
16,COc1cccc(CNC(=O)c2cccc(NC(=O)c3nsc4ccccc34)c2)c1,inactive: 67%
17,COc1ccc(NS(=O)(=O)c2ccc3c(c2)n(C)c(=O)c(=O)n3C)cc1Cl,inactive: 77%
18,CCOC(=O)C(CC)Sc1nnc2[nH]c(=O)cc(C)n12 (stereo unspecified),inactive: 64%
19,COc1cccc(CNC(=O)CC(c2ccc(C)cc2)N2Cc3ccccc3C2=O)c1 (stereo unspecified),inactive: 71%

row,SMILES,survival
1,Cc1ccc(CNC(=O)c2cnn(-c3ccc(F)cc3F)c2C2CCN(C(=O)OC(C)(C)C)CC2)cc1,inactive: 69%
2,CCCOc1ccc(C2C(=O)N(C3CCCCC3)CC(=O)N2CCC2=CCCCC2)cc1OC (stereo unspecified),inactive: 78%
3,COc1cccc(CNC(=O)CCS(=O)(=O)c2cc3c4c(c2)CCN4C(=O)CC3)c1,inactive: 54%
4,O=C(CSc1n[nH]c(-c2ccccc2)n1)NCCc1ccccc1,inactive: 77%
5,COc1cc(-c2nc3cnccn3c2Nc2ccc(C(C)C)cc2)ccc1O,inactive: 77%
6,COc1ccccc1-c1ccnc2c(-c3ccc(Br)cc3)c(C)nn12,inactive: 77%
7,CCc1ccc(Cn2c(CNS(=O)(=O)c3ccc(Cl)s3)nc3cccnc32)cc1,inactive: 53%
8,CCOC(=O)c1cc2c(=O)n3ccccc3nc2n(CC2CCCO2)c1=NC(=O)c1ccccc1F (stereo unspecified),inactive: 74%
9,COc1ccc(CNC(=O)C(C)n2nc(C)c3sc4ccccc4c3c2=O)cc1OC (stereo unspecified),inactive: 89%
10,Cc1ccccc1NC(=O)CSc1nnc(-c2cccc(Cl)c2)o1,inactive: 82%
11,Cc1nn2c(=O)cc(COC(=O)c3ccc(NC(=O)c4ccc(C(C)(C)C)cc4)cc3)nc2s1,inactive: 74%
12,Cc1csc2nc(-c3cccc(NC(=O)c4ccccc4F)c3)cn12,inactive: 134%
13,CCOc1ccc(NC(=O)c2noc3c2CSc2ccccc2-3)cc1,inactive: 84%
14,O=C(NCc1ccc(Cl)cc1)C1CCN(S(=O)(=O)c2ccc3c(c2)CCCN3C(=O)C2CCC2)CC1,inactive: 73%
15,O=C(CSc1nc(O)c(C/C=C/c2ccccc2)c(=O)[nH]1)Nc1cccc(F)c1,inactive: 65%
16,CC(C)(C)c1ccc(S(=O)(=O)N2CCN(C(=O)c3cc(-c4ccc(Br)cc4)n[nH]3)CC2)cc1,inactive: 131%
17,O=C(Nc1ccc2oc(-c3cc(Br)ccc3Cl)nc2c1)c1ccc2ccccc2c1,inactive: 73%
18,COc1cccc(CNC(=O)c2nnc(Cc3ccc(Cl)cc3)o2)c1,inactive: 79%
19,CCOCCc1nn2c(=O)cc(COC(=O)c3ccco3)nc2s1,inactive: 85%

row,SMILES,survival
1,COc1cc(-c2noc(-c3ccc(N4CCCCC4)c([N+](=O)[O-])c3)n2)cc(OC)c1OC,inactive: 86%
2,Cc1ccc(NC(=O)NC2CCN(C(=O)N3CCOCC3)CC2)cc1,inactive: 102%
3,COc1ccc(-c2cc(C)no2)cc1S(=O)(=O)N1CC(C)Oc2ccccc21 (stereo unspecified),active: -6%
4,CCN1CCN(CCCNC(=O)c2ccc3c(c2)sc2nc(-c4ccc(C)cc4)cn23)CC1,inactive: 29%
5,O=C(CSc1ccc(-c2cccs2)nn1)Nc1cccc(F)c1,inactive: 107%
6,COc1cccc(N2CCN(C(=O)Cn3ncc4c(=O)oc5ccccc5c43)CC2)c1,inactive: 86%
7,O=C1CC(c2cccc(F)c2)c2c(n3ncnc3[nH]c2=O)N1 (stereo unspecified),inactive: 77%
8,CCOC(=O)Cn1c(=O)n(C2CCCCC2)c2nc(-c3cccc(C)c3)nc(C(N)=O)c21,inactive: 89%
9,COc1ccc(-n2c(SCC(=O)NCc3ccccc3)nc3n[nH]c(C)c3c2=N)cc1,inactive: 74%
10,CCCn1c(=O)c2sccc2n2c(CCCC(=O)Nc3ccccc3F)nnc12,inactive: 95%
11,CN(C(=O)c1oc(=O)c2ccccc2c1-c1ccccc1)c1cccc(Cl)c1,inactive: 30%
12,COc1cccc(CN2CCc3nc(N4CCN(C)CC4)ncc3C2)c1,inactive: 71%
13,CCOc1ccc(CCNC(=O)Cc2ccc(NC(=O)N3CCSc4ncccc43)cc2)cc1,inactive: 80%
14,COc1ccc(-n2nc(C(=O)N3CCN(c4cccc(C(F)(F)F)c4)CC3)c3c4ccccc4n(C)c3c2=O)cc1Cl,inactive: 128%
15,Cc1oc2ncn(C)c(=O)c2c1C(=O)NCc1ccccc1,inactive: 57%
16,O=C(O)c1coc2ccccc12,inactive: 124%
17,COc1cccc(N2CCN(C(=O)Cn3ncc4c5ccccc5n(C)c4c3=O)CC2)c1,inactive: 76%
18,Cc1cccc(-c2noc(-c3cc(-c4ccc(F)cc4)n[nH]3)n2)c1,inactive: 128%
